The record followed here is US20160318991A1.

The target in this test is Fluorescently labelled FVIII (Oregon Green-FVIII) (UniProt P00451). In words: cell-based or functional assay.
Chain of UniProt P00451 (P00451 other isoform, or with tags, fused parts or gaps): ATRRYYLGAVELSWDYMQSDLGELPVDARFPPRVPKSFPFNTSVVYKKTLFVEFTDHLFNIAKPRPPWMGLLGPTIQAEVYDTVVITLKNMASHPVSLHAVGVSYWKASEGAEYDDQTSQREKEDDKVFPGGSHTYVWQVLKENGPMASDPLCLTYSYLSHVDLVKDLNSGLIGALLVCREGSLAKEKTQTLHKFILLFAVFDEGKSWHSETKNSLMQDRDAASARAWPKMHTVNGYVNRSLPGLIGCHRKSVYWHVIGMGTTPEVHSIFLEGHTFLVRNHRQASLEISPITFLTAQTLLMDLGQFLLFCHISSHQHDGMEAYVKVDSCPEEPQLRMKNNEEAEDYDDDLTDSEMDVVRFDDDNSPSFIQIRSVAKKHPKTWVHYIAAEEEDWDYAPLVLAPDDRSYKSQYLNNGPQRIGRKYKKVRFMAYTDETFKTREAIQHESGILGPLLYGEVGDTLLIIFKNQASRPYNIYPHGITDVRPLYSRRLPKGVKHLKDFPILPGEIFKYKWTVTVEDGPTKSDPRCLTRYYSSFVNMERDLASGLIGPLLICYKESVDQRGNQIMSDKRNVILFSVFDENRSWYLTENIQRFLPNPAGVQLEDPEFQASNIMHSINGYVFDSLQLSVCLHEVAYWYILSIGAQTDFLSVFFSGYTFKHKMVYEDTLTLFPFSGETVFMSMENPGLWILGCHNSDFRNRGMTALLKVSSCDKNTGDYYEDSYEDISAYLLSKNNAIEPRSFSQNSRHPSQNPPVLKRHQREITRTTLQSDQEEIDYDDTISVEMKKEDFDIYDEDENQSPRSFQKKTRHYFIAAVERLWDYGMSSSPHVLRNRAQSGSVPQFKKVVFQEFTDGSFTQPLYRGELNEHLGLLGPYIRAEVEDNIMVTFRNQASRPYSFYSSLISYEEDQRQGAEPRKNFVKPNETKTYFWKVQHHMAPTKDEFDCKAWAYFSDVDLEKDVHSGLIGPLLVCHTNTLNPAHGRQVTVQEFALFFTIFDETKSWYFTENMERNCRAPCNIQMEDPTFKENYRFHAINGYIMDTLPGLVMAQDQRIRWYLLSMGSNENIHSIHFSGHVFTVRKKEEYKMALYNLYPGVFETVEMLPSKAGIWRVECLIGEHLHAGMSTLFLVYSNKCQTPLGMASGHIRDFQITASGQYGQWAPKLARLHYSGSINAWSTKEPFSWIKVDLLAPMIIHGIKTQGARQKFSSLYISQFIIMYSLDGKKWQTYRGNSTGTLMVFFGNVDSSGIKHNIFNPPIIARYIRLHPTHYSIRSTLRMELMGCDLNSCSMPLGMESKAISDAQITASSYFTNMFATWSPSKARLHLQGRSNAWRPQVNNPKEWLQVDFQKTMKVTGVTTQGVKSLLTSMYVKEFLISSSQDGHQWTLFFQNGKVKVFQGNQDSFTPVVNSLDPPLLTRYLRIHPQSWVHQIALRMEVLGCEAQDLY

The substance “Plasma derived full length VWF, VWF ([…]) (a stretch of the chain, sequence left out) (other; Oregon Green fluorescent label)” registered an IC50 (nM), inhibition of FVIII uptake in human dendritic cells of 9.8 nM; an IC50 (nM), inhibition of FVIII uptake in macrophages of 15.6 nM; a Maximal inhibition (%), FVIII uptake in macrophages of 32.6%.
